The text below walks through data of the supplement of paper PMC12217912.

B1: TEV protease; numbered along this chain (parent)
chain: MGESLFKGPRDYNPISSSICHLTNESDGHTTSLYGIGFGPFIITNKHLFRRNNGTLVVQSLHGVFKVKDTTTLQQHLVDGRDMIIIRMPKDFPPFPQKLKFREPQREERICLVTTNFQTKSMSSMVSDTSCTFPSGDGIFWKHWIQTKDGQCGSPLVSTRDGFIVGIHSASNFTNTNNYFTSVPKNFMELLTNQEAQQWVSGWRLNADSVLWGGHKVFMVKPEEPFQPVKEATQL

This is one part of the list. Sequences were assembled here from the parent chain. Values near 0.05 are background.
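Also: Bxb1 expression induced with 0.2% (w/v) L-rhamnose at OD600 near 0.5, cultures sampled hourly, flipped fraction per protease–substrate barcode pair counted by paired-end Illumina sequencing.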

Variants of B1 are the subject of the experiment. Put plainly: raw area under fraction-flipped curve 0-4 h after induction (AUC4h, not background-subtracted), DNA-recorder readout of cleavage of the substrate (dimensionless); higher = more cleavage of the substrate by the protease variant. To be noted: temperature: 34 °C; time window: 0-4 h after rhamnose induction.
For the variant C131Q, the “area with substrate WNLYFQS” value was 0.0608.
Still for that read-out and setting: as for T119R, the figure is 0.045.
As for Q194I, the “area with substrate YNLYFQS” value was 0.0689.
Consider T132K, for which the “area with substrate WNLYFQS” value amounted to 0.0608.
Still for that read-out and setting: the value for G138M was 0.0643; that for E223A was 0.0597.
On to N186R, for which the “area with substrate VNLYFQS” value came to 0.0631.
In the case of E195H, the “area with substrate TNLYFQS” value was determined as 0.0688 and the “area with substrate WNLYFQS” value came out at 0.0563.
